pIC50: −log10 of the molar value. The IC50 comes from the fitted curve, where viability falls to half of the control; fits outside the tested doses are given as limits. AUC sums up the same curve from the lowest dose to the 256-fold higher top dose; it is 1 without any effect and falls as sensitivity rises. The top dose, if marked as inferred, comes from the curve model; the source does not state it.
Each cell line was assayed with CC1=C(C(=O)Nc2cc3cn[nH]c3cc2F)C(c2ccc(C(F)(F)F)cc2)CC(=O)N1 [GSK429286A] (assay: Viability of human cancer cell lines after 72 h of drug (GDSC screen)). Details: top dose inferred.
Procedure: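 Human cancer cell lines in 384-well plates, medium with 10% serum, drug for 72 h over a 256-fold dose range (nine 2-fold or five 4-fold steps up to the top dose). Adherent lines were fixed and stained with the nucleic acid dye Syto60, suspension lines read with resazurin; signal relative to control wells, capped at 0 and 100%. One two-parameter sigmoid per drug and line, fitted in a mixed model over all curves with the slope shared within a line.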

First: WM35 (melanoma, adherent, top dose 20 µM)
Second: NCI-H1869 (lung squamous cell carcinoma, adherent, top dose 20 µM)
The AUC of the first is higher: 0.981 for the first, 0.98 for the second.

Going from “D-423MG (glioma, adherent, top dose 20 µM)” to “D-247MG (glioma, adherent, top dose 20 µM)”, the AUC rises from 0.895 to 0.97.

Compared with “5637 (bladder, adherent, top dose 20 µM)”, “KALS-1 (glioma, adherent, top dose 20 µM)” is lower in AUC: 0.949 for the first, 0.947 for the second.

First: BFTC-909 (kidney, adherent, top dose 20 µM)
Second: HT-1376 (bladder, adherent, top dose 20 µM)
The AUC of the first is lower: 0.973 for the first, 0.985 for the second.

Compared with “A375 (melanoma, adherent, top dose 20 µM)”, “CHP-134 (neuroblastoma, suspension, top dose 20 µM)” is lower in AUC: 0.978 for the first, 0.572 for the second.

Compared with “NCI-H1838 (lung adenocarcinoma, adherent, top dose 20 µM)”, “DAN-G (pancreas, adherent, top dose 20 µM)” is higher in AUC: 0.947 for the first, 0.985 for the second.

Compared with “CP66-MEL (melanoma, adherent, top dose 20 µM)”, “AU565 (breast, adherent, top dose 20 µM)” is lower in AUC: 0.984 for the first, 0.975 for the second.

Going from “IST-SL2 (small cell lung carcinoma, suspension, top dose 20 µM)” to “RL (B-cell lymphoma, suspension, top dose 20 µM)”, the AUC rises from 0.949 to 0.958.

First: LC-2-ad (lung adenocarcinoma, adherent, top dose 20 µM)
Second: LU-139 (small cell lung carcinoma, suspension, top dose 20 µM)
The AUC of the first is higher: 0.977 for the first, 0.841 for the second.

Going from “TC-71 (Ewing sarcoma, adherent, top dose 20 µM)” to “LB2518-MEL (melanoma, adherent, top dose 20 µM)”, the AUC falls from 0.978 to 0.97.

First: NCI-H1666 (lung adenocarcinoma, semi-adherent, top dose 20 µM)
Second: NCI-H1792 (lung adenocarcinoma, adherent, top dose 20 µM)
The AUC of the first is higher: 0.986 for the first, 0.939 for the second.

Compared with “MC116 (B-cell lymphoma, suspension, top dose 20 µM)”, “MS-1 (small cell lung carcinoma, suspension, top dose 20 µM)” is lower in AUC: 0.998 for the first, 0.983 for the second.

Going from “CESS (acute myeloid leukaemia, suspension, top dose 20 µM)” to “D-566MG (glioma, adherent, top dose 20 µM)”, the AUC falls from 0.951 to 0.863.

Going from “IST-MES1 (mesothelioma, adherent, top dose 20 µM)” to “D-392MG (glioma, adherent, top dose 20 µM)”, the AUC falls from 0.98 to 0.959.

First: Mewo (melanoma, adherent, top dose 20 µM)
Second: OVCA420 (ovary, adherent, top dose 20 µM)
The AUC of the first is lower: 0.974 for the first, 0.979 for the second.

First: OVCAR-3 (ovary, adherent, top dose 20 µM)
Second: LB2241-RCC (kidney, adherent, top dose 20 µM)
The AUC of the first is higher: 0.986 for the first, 0.983 for the second.

First: NCI-H2228 (lung adenocarcinoma, adherent, top dose 20 µM)
Second: SW1990 (pancreas, adherent, top dose 20 µM)
The AUC of the first is lower: 0.954 for the first, 0.973 for the second.

“BICR22 (head and neck, adherent, top dose 20 µM)” and “CGTH-W-1 (thyroid, adherent, top dose 20 µM)” are the same in AUC: 0.983 for the first, 0.983 for the second.

First: HSC-3 (head and neck, adherent, top dose 20 µM)
Second: NB12 (neuroblastoma, adherent, top dose 20 µM)
The AUC of the first is higher: 0.987 for the first, 0.956 for the second.

Compared with DJM-1 (skin, adherent, top dose 20 µM), “OAW-28 (ovary, adherent, top dose 20 µM)” is lower in AUC: 0.988 for the first, 0.983 for the second.

In the case of “UWB1.289 (ovary, adherent, top dose 20 µM)”, the AUC was 0.972.

“WM35 (melanoma, adherent, top dose 20 µM)” and “NCI-H1869 (lung squamous cell carcinoma, adherent, top dose 20 µM)” cannot be ordered by pIC50: less than 4.70 for the first, less than 4.70 for the second.

“D-423MG (glioma, adherent, top dose 20 µM)” and “D-247MG (glioma, adherent, top dose 20 µM)” cannot be ordered by pIC50: less than 4.70 for the first, less than 4.70 for the second.

“5637 (bladder, adherent, top dose 20 µM)” and “KALS-1 (glioma, adherent, top dose 20 µM)” cannot be ordered by pIC50: less than 4.70 for the first, less than 4.70 for the second.

“BFTC-909 (kidney, adherent, top dose 20 µM)” and “HT-1376 (bladder, adherent, top dose 20 µM)” cannot be ordered by pIC50: less than 4.70 for the first, less than 4.70 for the second.

Going from “A375 (melanoma, adherent, top dose 20 µM)” to “CHP-134 (neuroblastoma, suspension, top dose 20 µM)”, the pIC50 rises from less than 4.70 to 5.68.

“NCI-H1838 (lung adenocarcinoma, adherent, top dose 20 µM)” and “DAN-G (pancreas, adherent, top dose 20 µM)” cannot be ordered by pIC50: less than 4.70 for the first, less than 4.70 for the second.

“CP66-MEL (melanoma, adherent, top dose 20 µM)” and “AU565 (breast, adherent, top dose 20 µM)” cannot be ordered by pIC50: less than 4.70 for the first, less than 4.70 for the second.

“IST-SL2 (small cell lung carcinoma, suspension, top dose 20 µM)” and “RL (B-cell lymphoma, suspension, top dose 20 µM)” cannot be ordered by pIC50: less than 4.70 for the first, less than 4.70 for the second.

“LC-2-ad (lung adenocarcinoma, adherent, top dose 20 µM)” and “LU-139 (small cell lung carcinoma, suspension, top dose 20 µM)” cannot be ordered by pIC50: less than 4.70 for the first, less than 4.70 for the second.

“TC-71 (Ewing sarcoma, adherent, top dose 20 µM)” and “LB2518-MEL (melanoma, adherent, top dose 20 µM)” cannot be ordered by pIC50: less than 4.70 for the first, less than 4.70 for the second.

“NCI-H1666 (lung adenocarcinoma, semi-adherent, top dose 20 µM)” and “NCI-H1792 (lung adenocarcinoma, adherent, top dose 20 µM)” cannot be ordered by pIC50: less than 4.70 for the first, less than 4.70 for the second.

“MC116 (B-cell lymphoma, suspension, top dose 20 µM)” and “MS-1 (small cell lung carcinoma, suspension, top dose 20 µM)” cannot be ordered by pIC50: less than 4.70 for the first, less than 4.70 for the second.

First: CESS (acute myeloid leukaemia, suspension, top dose 20 µM)
Second: D-566MG (glioma, adherent, top dose 20 µM)
The pIC50 of the first is lower: less than 4.70 for the first, 4.77 for the second.

“IST-MES1 (mesothelioma, adherent, top dose 20 µM)” and “D-392MG (glioma, adherent, top dose 20 µM)” cannot be ordered by pIC50: less than 4.70 for the first, less than 4.70 for the second.

“Mewo (melanoma, adherent, top dose 20 µM)” and “OVCA420 (ovary, adherent, top dose 20 µM)” cannot be ordered by pIC50: less than 4.70 for the first, less than 4.70 for the second.

“OVCAR-3 (ovary, adherent, top dose 20 µM)” and “LB2241-RCC (kidney, adherent, top dose 20 µM)” cannot be ordered by pIC50: less than 4.70 for the first, less than 4.70 for the second.

“NCI-H2228 (lung adenocarcinoma, adherent, top dose 20 µM)” and “SW1990 (pancreas, adherent, top dose 20 µM)” cannot be ordered by pIC50: less than 4.70 for the first, less than 4.70 for the second.

“BICR22 (head and neck, adherent, top dose 20 µM)” and “CGTH-W-1 (thyroid, adherent, top dose 20 µM)” cannot be ordered by pIC50: less than 4.70 for the first, less than 4.70 for the second.

“HSC-3 (head and neck, adherent, top dose 20 µM)” and “NB12 (neuroblastoma, adherent, top dose 20 µM)” cannot be ordered by pIC50: less than 4.70 for the first, less than 4.70 for the second.

DJM-1 (skin, adherent, top dose 20 µM) and “OAW-28 (ovary, adherent, top dose 20 µM)” cannot be ordered by pIC50: less than 4.70 for the first, less than 4.70 for the second.

In the case of “UWB1.289 (ovary, adherent, top dose 20 µM)”, the pIC50 was less than 4.70.

— the supplement of paper PMC4967469
